Source: the supplement of paper PMC3334620
Whole data set: some 33,000 sequences, median “E-score (-0.5 to 0.5)” near -0.035, cut for the highest 2% near 0.34. The list shows a part of the results.

These sequences were tested against T1, Mot3 (UniProt P54785) (assay: PBM E-score (8-mer binding enrichment) (E-score (-0.5 to 0.5)); higher = stronger / more preferred TF binding; most listed sequences are background and not binding sites). Conditions: protein concentration: 200 nM; construct: GST-full length.
T1 sequence: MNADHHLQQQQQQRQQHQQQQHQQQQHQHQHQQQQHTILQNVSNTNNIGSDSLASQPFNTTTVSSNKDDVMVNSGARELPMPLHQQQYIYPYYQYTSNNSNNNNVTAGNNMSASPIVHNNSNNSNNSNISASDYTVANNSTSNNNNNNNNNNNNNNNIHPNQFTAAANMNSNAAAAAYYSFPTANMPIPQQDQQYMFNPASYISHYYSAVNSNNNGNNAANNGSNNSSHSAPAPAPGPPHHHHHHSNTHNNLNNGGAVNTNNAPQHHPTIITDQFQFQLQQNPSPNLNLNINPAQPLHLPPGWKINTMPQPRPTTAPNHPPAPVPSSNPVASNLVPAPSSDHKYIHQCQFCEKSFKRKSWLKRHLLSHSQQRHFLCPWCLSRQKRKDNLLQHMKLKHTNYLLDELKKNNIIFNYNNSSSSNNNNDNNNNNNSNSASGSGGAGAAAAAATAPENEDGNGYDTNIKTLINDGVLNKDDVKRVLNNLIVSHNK
In short: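 Using PURExpress in vitro transcription/translation, GST-tagged yeast transcription factors were made in full-length or DNA-binding-domain form. These were applied at about 100-200 nM to double-stranded universal all-10-mer Agilent arrays, and bound protein was detected with fluorescent anti-GST. Scans were normalised with masliner before the Universal PBM Analysis Suite assigned E-scores to ungapped eight-base words pooled with their reverse complements.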

Row | Sequence | PBM E-score
1 | ATGTATAG | 0.231
2 | GATCTTAA | -0.0152
3 | ACGCTCCG | -0.193
4 | AGGCTTCG | 0.00623
5 | ACGAGATC | -0.0961
6 | GCACGCGC | 0.252
7 | CGGGACGC | -0.273
8 | AAGAGCTC | 0.00626
9 | CTAGCATC | 0.103
10 | ACAACTGT | 0.068
11 | AAGTGCAG | -0.2
12 | CACCTAGG | -0.0296
13 | ACCCGATC | -0.16
14 | AGAGCGCA | -0.3
15 | AACTCGAC | 0.056
16 | ATCCCAAT | -0.0008
17 | AATTTGGG | 0.115
18 | AGTGCCTA | 0.484
19 | ACTGCGAG | -0.237
20 | AAGAGGGT | -0.191
21 | AGTCAATC | -0.161
22 | AGGAACGC | 0.451
23 | GAGCATTA | 0.0561
24 | CTTTCGGA | -0.229
25 | ACTACACC | 0.118

Row | Sequence | PBM E-score
26 | AGGTCTCC | -0.202
27 | CAATAGAA | -0.174
28 | ATCTCCTA | -0.129
29 | CTGAGCCC | -0.191
30 | CTCTCTAA | -0.297
31 | ATGGGGGG | -0.155
32 | GTGGCAAA | -0.223
33 | ACTACGGG | -0.156
34 | ACGTGCAC | 0.048
35 | GCCTGAGC | -0.103
36 | CTCGCGGC | -0.139
37 | CTATACTC | -0.234
38 | AGCCGCCC | -0.104
39 | CGATTCCC | -0.036
40 | AGTGAGTG | -0.136
41 | AGTCGCAC | -0.112
42 | AATTCTTG | 0.0618
43 | ACAAAATA | 0.175
44 | GATGAATC | 0.169
45 | ACTCTAAC | -0.072
46 | CCGAACAG | -0.0905
47 | CGTGTAGC | 0.228
48 | CACTTACG | 0.0989
49 | AACGCCTG | 0.164
50 | ACATCACC | 0.0584

Row | Sequence | PBM E-score
51 | ACAATATG | 0.118
52 | CCATAAAA | -0.0974
53 | GACAGCCA | -0.186
54 | TCACAGAA | 0.0378
55 | CTTGAACC | 0.152
56 | AATATATT | 0.287
57 | CAACCCGC | -0.109
58 | CGCCCAAA | -0.0759
59 | ACTCTCCA | -0.284
60 | ATCCCTTC | -0.163
61 | AACGACGC | 0.157
62 | CGCTGAAC | 0.026
63 | GCCAGTGA | -0.241
64 | GACCACAC | 0.0153
65 | GACCCCTC | -0.29
66 | GGCCCTAC | -0.281
67 | GCGCGCGC | 0.0175
68 | ACCCGGCC | -0.31
69 | AAAGAGTA | 0.0928
70 | AGCTTTGA | -0.112
71 | CGGAAGTC | -0.26
72 | CTTTGTGA | 0.00176
73 | CCTTCTCA | 0.0457
74 | GATTGGTA | -0.00107
75 | AGGCAACG | 0.485

Row | Sequence | PBM E-score
76 | CCTGAAAG | 0.153
77 | AGGTTATA | -0.0192
78 | ATAAAGTC | -0.0357
79 | CCTCGAAG | -0.0601
80 | GCTGAACA | 0.0813
81 | ATACTGAT | 0.119
82 | CCGTAGTA | -0.129
83 | GGCTTCAA | 0.0155
84 | AACCCGAT | -0.0427
85 | CAGGGTAC | 0.0801
86 | CAGCCGGC | -0.346
87 | CTAACCAA | 0.144
88 | CCTGACCC | -0.0948
89 | CAGCGCTA | 0.0202
90 | TACGGTAA | 0.0915
91 | GGGAGTGA | -0.108
92 | AGAAGGCT | -0.0686
93 | AATAGCGC | 0.121
94 | CTCCAGCA | -0.212
95 | ATGACCAA | -0.0129
96 | AACACTCG | -0.0687
97 | GGTCCACA | -0.108
98 | CTACTGGC | -0.182
99 | CTGGCCCC | -0.215
100 | CTCTGAGC | 0.0146

Row | Sequence | PBM E-score
101 | AAAGGACC | -0.00153
102 | GTGTAACA | 0.343
103 | TCGTAAGA | -0.132
104 | ATTGCTAC | -0.0654
105 | AAGAGAAT | 0.0869
106 | GTAGTCAA | 0.0813
107 | AAGTATGA | 0.0108
108 | AAGTGTTC | -0.0251
109 | CGGGAACC | -0.222
110 | CCGAACAC | -0.0162
111 | ACAAGGTA | 0.301
112 | GGATAGCC | -0.314
113 | AGTTAAAA | 0.232
114 | GCCCCTAC | -0.0748
115 | ACCTTTAA | 0.25
116 | AAACTCCG | -0.131
117 | GTATATAC | 0.0541
118 | CTGTCATC | -0.213
119 | CATTAAGC | -0.105
120 | TCGACGCA | 0.0379
121 | AGGCTACT | -0.0824
122 | GTCGACCA | 0.0388
123 | GATTCACC | -0.152
124 | AGCGCACC | -0.0249
125 | ACGGTCGC | -0.158

Row | Sequence | PBM E-score
126 | AGGGTGTA | 0.0879
127 | AAGATCGA | -0.155
128 | CTCGTCCA | -0.123
129 | AATGTGAT | 0.0837
130 | GTCATGAA | -0.116
131 | ATGTCGAC | 0.173
132 | GCCTCGCC | -0.17
133 | AAATGAGG | 0.0473
134 | ATTCTCGG | -0.134
135 | CAAGCCTA | 0.11
136 | CTTTGGAC | 0.018
137 | GTCACCAC | -0.144
138 | ACCAACGA | -0.0281
139 | AGCTTTCG | -0.0766
140 | CAAGGTCC | -0.194
141 | TCCCGAGA | -0.37
142 | GCACAAGA | 0.113
143 | AAACCCCG | 0.117
144 | GATTACTA | 0.122
145 | CCGTACTA | -0.165
146 | ACGAGCAT | -0.123
147 | GCGGGCTA | -0.269
148 | CCAGGGTA | -0.153
149 | CACTAGCG | -0.179
150 | ACGAGTCC | -0.174

Row | Sequence | PBM E-score
151 | GGCCATAC | -0.257
152 | GGACCAAA | -0.222
153 | ACGCTTAC | -0.00046
154 | CATCGTAG | -0.0374
155 | CCTAGTTA | 0.0946
156 | CCCACTCA | -0.103
157 | ATCTATCC | -0.109
158 | AGGTATCA | -0.00093
159 | CATATCAC | 0.0346
160 | ATTGTAGC | 0.053
161 | ACGACACG | 0.298
162 | GTAACCCA | 0.126
163 | AGACTTAG | -0.0932
164 | TATCCCAA | -0.00764
165 | ACGTTACG | 0.138
166 | TATGAGGA | -0.0824
167 | AGTTCGGC | -0.0626
168 | TACATTGA | 0.271
169 | AGGAACAA | 0.401
170 | ACTAAGAA | 0.0396
171 | ATCGAAGC | -0.186
172 | ACAGGGAT | 0.0444
173 | GCTGAGCC | -0.154
174 | AGAAAATG | 0.022
175 | AGCTTCAG | -0.232

Row | Sequence | PBM E-score
176 | AAGAAAGG | 0.233
177 | CATGCGAG | -0.143
178 | CAGGGACC | -0.263
179 | CGTCGTTC | 0.086
180 | ACCAACCA | -0.0619
181 | CAGGTAAA | 0.383
182 | GGTTGACA | 0.0363
183 | ACATAACT | 0.239
184 | CACACCGA | 0.123
185 | CTTGCTAA | 0.0456
186 | ACTCGGCG | -0.169
187 | CCCATTAC | 0.145
188 | GGGCCGAC | -0.317
189 | CCATCTAG | -0.0951
190 | CGTTTACA | 0.349
191 | GATACTGA | -0.0459
192 | GCTGCTAC | -0.21
193 | CCACCAAA | -0.137
194 | AGTGAAGG | 0.179
195 | ACCAAGAT | -0.0946
196 | ACCGTATG | -0.115
197 | CTTCCGTC | -0.151
198 | CATGAGAA | 0.233
199 | CCTGGGTA | -0.0534
200 | AGCCCCAT | -0.0787

Row | Sequence | PBM E-score
201 | CCATGGGA | -0.262
202 | CCATTCAC | -0.156
203 | AAAACCCT | -0.0651
204 | CCGGGGCA | -0.234
205 | CATAGGGC | 0.0429
206 | GACGGGTA | -0.204
207 | ACAGGCAA | 0.489
208 | GCCAAAGA | -0.0826
209 | GTGAAGCA | -0.145
210 | ATTGCCAA | -0.0917
211 | AGAGCGGC | -0.159
212 | ATATGATC | -0.0454
213 | AATGTGGA | -0.00117
214 | CATTCAGG | 0.00366
215 | CAAGAGCG | -0.137
216 | ACCGATGC | -0.164
217 | GTAGACAC | 0.129
218 | GAATGCGC | -0.141
219 | CGGTGTGA | -0.116
